Test results from PubChem BioAssay AID686979 (National Center for Advancing Translational Sciences (NCATS), 2013).
The whole screen tested about 420,000 compounds, of which about 50,000 (12%) were called active. Inconclusive results, whose numbers are uncertain, are shown with a selection of clear calls. The call rests on the fitted dose curve; in most records, active means well fitted inhibition curve with a large enough effect; inconclusive means small, poorly fitted or top-dose-only effect; inactive means flat fitted curve, though single readings scatter. No potency is given beside an inconclusive call; the fits are too rough.
On the % scale 0 is the no-effect control and ±100 the full control effect; potency means the concentration at half of the fitted maximal effect; tags describe the fitted curve by direction and shape.

Assay: qHTS for Inhibitors of human tyrosyl-DNA phosphodiesterase 1 (TDP1): qHTS in cells in presence of CPT; further: nearly all actives have a fitted effect of over 55% in size
Details: chicken DT40 Tdp1-/-;hTDP1 cells + 20 nM CPT, ATP luminescence, 48 h; activity change, negative = growth inhibition: at 46.2 µM (top of the series)
In short: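 Cell growth measured by CellTiter-Glo luminescence after a minimum 48 h, 37 C compound exposure with 20 nM CPT in Tdp1-knockout DT40 cells stably expressing hTDP1, seeded 400/well; qHTS titration format.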
For `CCCCN(CC)CCCNC(=O)c1cc2cc3ccc(OC)cc3nc2o1`, the Potency was inconclusive [inhibitor, single point].
For `COc1ccccc1C1/C(=C(/O)c2ccccc2)C(=O)C(=O)N1CC(C)O` (centres undefined), the “activity change, negative = growth inhibition” value was inactive: 3.89%.
For `COc1cc(C(=O)NCCC(=O)NC(C)CCc2ccccc2)cc(OC)c1OC` (centres undefined), the “activity change, negative = growth inhibition” value was inactive: -4.83%.
In the case of `CC(C)C[C@H]1CN([C@@H](CC(C)C)CN2CCCC2CN2C(=S)NC[C@@H]2Cc2ccc(O)cc2)C(=S)N1CC1CCCCC1` (some centres undefined), the Potency is reported as inconclusive [inhibitor, single point].
In the case of `CCOc1ccc(CNC(=O)c2ccc(NC(=O)N3CCCCc4ccccc43)cc2)cc1`, the Potency is reported as inconclusive [inhibitor, single point].
In the case of `Oc1cccc(/C=N/NC(=S)Nc2cccnc2)c1O`, the Potency is reported as active: 2.31 µM.
With `Cc1c(NC(=O)Cc2ccc(Cl)cc2)cccc1-c1nc2cccnc2s1` the Potency was inconclusive [inhibitor, single point].
With `Cc1cccc(CNC(=O)Cn2nc(C)c3nn(-c4ccc(Cl)cc4)c(C)c3c2=O)c1` the Potency was active: 20.6 µM.
In the case of `CCn1c(=N)n(CC(=O)OC)c2ccccc21`, the “activity change, negative = growth inhibition” value is reported as inactive: 0.405%.
With `CCOC(=O)C1CCCN(c2nc3ccccc3nc2C(C#N)C(=O)OC(C)C)C1` (centres undefined) the Potency was inconclusive [inhibitor, single point].
In the case of `COC[C@@H]1CCCN1c1ccc2c(c1)O[C@@H](COCc1ccccc1)CN([C@@H](C)c1ccccc1)S2(=O)=O`, the Potency is reported as active: 9.2 µM.
With `COc1cccc(CN(C(=O)Cc2c[nH]c3ccccc23)C(C(=O)NC2CCCCC2)c2ccc(C)o2)c1` (centres undefined) the Potency was active: 16.4 µM.
For `COc1cc(CCC(=O)Nc2ncc(C)s2)cc(OC)c1OC`, the “activity change, negative = growth inhibition” value was inactive: 4.44%.
For `Cc1cc(C)c(NC(=O)Cn2cc3c(n2)CCCC3)c(C)c1`, the Potency was inconclusive [inhibitor, single point].
With `CC(=O)Nc1ccc(CN2CCN(CCC(C)C)C(CCO)C2)cc1` (centres undefined) the “activity change, negative = growth inhibition” value was inactive: -13.6%.
With `CS(=O)(=O)N(CC(=O)NCCSCc1ccccc1Cl)c1ccccc1F` the Potency was inconclusive [inhibitor, partial curve].
In the case of `Cc1cc(Cl)c(OCCCNCc2ccccc2)c(Br)c1`, the Potency is reported as inconclusive [inhibitor, single point].
With `CCOc1ccc(/C=N/NC(=O)c2ccncc2)cc1OC` the “activity change, negative = growth inhibition” value was inactive: 1.03%.
With `COc1cc(OC)cc(C(=O)NNC(=O)c2ccccn2)c1` the Potency was active: 2.91 µM.
For `O=C(CSc1nc(Nc2ccccc2)c2ccccc2n1)c1ccc(Cl)cc1`, the Potency was active: 13 µM.
For `Cc1ccc(OCCC(=O)N(CC(=O)Nc2ccccc2C(F)(F)F)Cc2ccco2)cc1`, the Potency was inconclusive [inhibitor, single point].
With `Cc1ccc(CSc2nnc(SCC(=O)N/N=C/C=C/c3ccccc3[N+](=O)[O-])s2)cc1` the Potency was inconclusive [inhibitor, single point].
In the case of `NCCCC[C@H]1CNC(=S)N1CC1(c2ccccc2)CC1`, the Potency is reported as inconclusive [inhibitor, single point].
In the case of `CC(C)C(=O)Nc1cccc2nsnc12`, the Potency is reported as inconclusive [inhibitor, single point].
With `Cc1noc(C)c1C(=O)N(CC(C)C)c1nc2ccccc2s1` the Potency was inconclusive [inhibitor, single point].
With `COC(=O)c1scc(-c2ccc(C)cc2)c1S(=O)(=O)Nc1cc(C)c(Cl)cc1OC` the Potency was active: 4.61 µM.
With `CC(C)(C)n1nnnc1C(c1ccccc1F)N(Cc1ccco1)CC1CCCO1` (centres undefined) the Potency was inconclusive [inhibitor, single point].
In the case of `CC(C)(C)C(=O)Nc1sc2c(c1-c1nc3ccccc3[nH]1)CCCC2`, the Potency is reported as inconclusive [inhibitor, single point].
In the case of `Cc1ccc(NC(=O)c2ccc(OCc3c(C)noc3C)cc2)cc1C`, the Potency is reported as inconclusive [inhibitor, single point].
For `O=C1CC(C(F)(F)C(F)(F)C(F)(F)C(F)(F)F)=Nc2ccccc2N1`, the Potency was inconclusive [inhibitor, single point].
With `CN(C)Cc1nc2ccccc2c(=O)n1Cc1nc(C(C)(C)C)cs1` the Potency was inconclusive [inhibitor, single point].
In the case of `CCC(=O)Nc1ccc(-c2nnc(-c3ccccc3)o2)cc1`, the “activity change, negative = growth inhibition” value is reported as inactive: -3.53%.
In the case of `COc1cccc(C(=O)OC(C)CN2CCCC2)c1` (centres undefined), the “activity change, negative = growth inhibition” value is reported as inactive: -2.55%.
With `Clc1cccc(CNCCCSc2nnnn2-c2ccccc2)c1` the Potency was inconclusive [inhibitor, single point].
For `CC1(C)CC(=O)C=C(NNC(=O)OC(C)(C)C)C1`, the “activity change, negative = growth inhibition” value was inactive: -5.11%.
In the case of `C[C@H](CO)N1C[C@H](C)[C@@H](CN(C)C(=O)Nc2ccccc2F)Oc2cc(Br)ccc2S1(=O)=O`, the “activity change, negative = growth inhibition” value is reported as inactive: -2.7%.
With `CCCCOC(=O)c1ccc(NC(=O)c2ccc3c(c2)CCN3S(C)(=O)=O)cc1` the “activity change, negative = growth inhibition” value was inactive: -25.1%.
For `COc1cc2c(cc1OC)CN(CC(=O)Nc1ccc(C#N)cc1)CC2`, the “activity change, negative = growth inhibition” value was inactive: -30.2%.
For `CCOC(=O)c1c(-c2ccc(C)cc2)csc1NC1=NS(=O)(=O)c2ccccc21`, the Potency was inconclusive [inhibitor, single point].
For `Cc1ccc(NS(=O)(=O)c2ccc3c(c2)n(C)c(=O)n3C)c(C)c1`, the Potency was inconclusive [inhibitor, single point].
With `COCCN(C(=S)Nc1ccc(C)c(C)c1)C(C)c1ccco1` (centres undefined) the Potency was inconclusive [inhibitor, single point].
In the case of `COc1ccc(/C=N/NC(=O)c2ccc(CN3c4cccc5cccc(c45)S3(=O)=O)cc2)cc1`, the “activity change, negative = growth inhibition” value is reported as inactive: 0.978%.
With `COC(=O)Nc1nc2ccc(SC(C)C)cc2[nH]1` the Potency was active: 0.82 µM.
In the case of `Cc1cccc(N2CCN(C(=O)CCS(=O)(=O)c3ccc4c(c3)CC(=O)N4C)CC2C)c1` (centres undefined), the Potency is reported as active: 16.4 µM.
For `CN(CC(=O)Nc1cccc(S(=O)(=O)N(C)c2ccccc2)c1)Cc1cccs1`, the Potency was inconclusive [inhibitor, single point].
With `Cc1ccccc1OCCCC(=O)Nc1ccc(Br)cc1` the Potency was inconclusive [inhibitor, single point].
With `Cc1ccc2cc(CN(Cc3ccco3)C(=S)NCC3CCCO3)c(=O)[nH]c2c1C` (centres undefined) the Potency was active: 18.4 µM.
With `Fc1cccc(CN2CCc3nc(Nc4ccc5c(c4)OCCO5)ncc3C2)c1F` the Potency was inconclusive [inhibitor, single point].
In the case of `Cc1ccc(CSC2=NC(C)(C)Nc3ccccc32)c(C)c1`, the “activity change, negative = growth inhibition” value is reported as inactive: -27.8%.
In the case of `CCOc1cc(C)c(C(C)C)cc1S(=O)(=O)n1ccc(C)n1`, the Potency is reported as inconclusive [inhibitor, single point].
With `CCOc1ccc(N/C(N)=N/c2nc(CSc3nnc(C)s3)cc(=O)[nH]2)cc1` the Potency was active: 0.651 µM.
With `CCNc1nc2c(c(=O)n(C)c(=O)n2C)n1Cc1ccc(F)cc1` the Potency was active: 2.06 µM.
With `COc1cc(OC)c(NS(=O)(=O)c2ccc3c(c2)NC(=O)CO3)cc1Cl` the Potency was active: 18.4 µM.
With `O=C(NC1CCCc2ccccc21)c1ccc2c(c1)OCO2` (centres undefined) the Potency was inconclusive [inhibitor, partial curve].
For `COc1ccc(CNC(=O)C(NS(=O)(=O)c2ccc3c(c2)CCCN3C(C)=O)C(C)C)cc1` (centres undefined), the “activity change, negative = growth inhibition” value was inactive: -28%.
In the case of `CON(C)S(=O)(=O)c1cccc(C(=O)Nc2cccc(S(=O)(=O)NC3=NCCCCC3)c2)c1`, the Potency is reported as inconclusive [inhibitor, single point].
In the case of `Cn1c(=O)cc(OCCCC(=O)N2CCN(c3ccccc3)CC2)c2ccccc21`, the Potency is reported as inconclusive [inhibitor, single point].
In the case of `CC(=O)Oc1c(I)cc(I)cc1C(=O)Nc1ccc(Cl)cc1`, the Potency is reported as inconclusive [inhibitor, single point].
For `CC1CCC(C(=O)NC(C(=O)NCc2cccnc2)C(C)C)CC1` (centres undefined), the “activity change, negative = growth inhibition” value was inactive: 7.73%.
In the case of `CCn1cnc2cc(NC(=O)COc3ccc(C)cc3)ccc21`, the Potency is reported as inconclusive [inhibitor, single point].
For `CCN1CCCC1CNC(=O)c1ccc2c(c1)NC(=O)/C(=C\c1ccc(C)cc1)S2` (centres undefined), the Potency was inconclusive [inhibitor, single point].
In the case of `O=C(NNC(=O)c1ccccc1F)c1ccco1`, the “activity change, negative = growth inhibition” value is reported as inactive: 9.44%.
For `COc1ccc(-c2noc(N3CCC(C(=O)N4CCN(c5cccc(OC)c5)CC4)CC3)n2)cc1`, the Potency was active: 6.51 µM.
In the case of `COC(=O)c1[nH]c2ccc(C)cc2c1NC(=O)CN1CCN(Cc2ccccc2)CC1`, the Potency is reported as active: 18.4 µM.
In the case of `CSc1ncnc2c1ccn2CC(=O)Nc1ccc(C)c(C)c1`, the Potency is reported as inconclusive [inhibitor, single point].
For `COC(=O)c1ccccc1NC(=O)C1CCN(c2ncnc3c2nc2n3CCCCC2)CC1`, the Potency was active: 20.6 µM.
In the case of `O=C(NCC(c1ccco1)N1CCOCC1)c1ccc(Cl)cc1` (centres undefined), the “activity change, negative = growth inhibition” value is reported as inactive: -16.6%.
In the case of `CCOC(=O)C1=CCN(S(C)(=O)=O)C1c1ccc(C)cc1` (centres undefined), the “activity change, negative = growth inhibition” value is reported as inactive: -5.27%.
With `O=S(=O)(NC1CCCCC1N1CCN(c2ccc(F)cc2)CC1)c1ccc(Cl)cc1` (centres undefined) the Potency was inconclusive [inhibitor, single point].
In the case of `CCOc1ccc2c(c1)c(=O)c(C(=O)c1ccc(CC)cc1)cn2CC(=O)Nc1ccc2c(c1)OCCO2`, the Potency is reported as inconclusive [inhibitor, single point].
For `O=C(CCSc1nc(-c2ccco2)cc(C(F)(F)F)n1)NCCN1CCOCC1`, the “activity change, negative = growth inhibition” value was inactive: 7.15%.
In the case of `CCN(C[C@H]1N[C@@](CC)(C(=O)OC)[C@H]2C(=O)N(Cc3ccccc3)C(=O)[C@@H]12)S(=O)(=O)c1ccc(-c2ccccc2)cc1`, the activity change, negative = growth inhibition is reported as inconclusive: -36.5% [inhibitor].
In the case of `COc1cc(C2C=C(C(=O)O)Nc3ncnn32)ccc1O` (centres undefined), the “activity change, negative = growth inhibition” value is reported as inactive: -20%.
In the case of `O=C(/C=C/c1ccc([N+](=O)[O-])cc1)NC1CC2CCC1C2` (centres undefined), the Potency is reported as inconclusive [inhibitor, single point].
